According to PubChem BioAssay AID1508624 (National Center for Advancing Translational Sciences (NCATS), 2021):
The campaign covered roughly 48,000 compounds. About 120 (0.25%) were called active. Roughly 4% stayed inconclusive and do not appear here. The call rests on the fitted dose curve; in most records, active means well fitted activation curve with a large enough effect; inconclusive means small, poorly fitted or top-dose-only effect, or another doubt; inactive means no such curve, though single readings can be large or run the other way. Some of the results follow.

assay: Primary qHTS for Identification of Small Molecule Activators of Huntingtin-Antisense Promoter Activity; conditions: HEK293 HTT-AS promoter firefly luciferase reporter, 24 h; series mostly up to 57.5 µM; activity change, positive = activation: at the top concentration; further: nearly all actives have a fitted effect of over 55% in size
How it was run: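 Firefly luciferase readout (Dual-Glo, 10 min RT) after 24 h, 37 °C compound exposure (final up to 57.5 uM) of HEK293 reporter cells cultured 24 h beforehand; PTC124 at 50 uM final as control inhibitor; activity scaled vehicle 0%, zero RLU -100%.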

Activity change, positive = activation, inactive:
Brc1cccc(-c2nn(-c3ccccc3)c3c2cnc2cc4c(cc23)OCO4)c1 -10.8%, O=C(c1cccs1)N1CCCc2cc(NS(=O)(=O)c3ccc(Br)cc3)ccc21 -40.8%, CCc1cccc(C)c1NC(=O)C1CCN(S(=O)(=O)c2cc(Br)cc3c2N(C(C)=O)CC3)CC1 6.01%, COc1ccc(NC(=O)Nc2cccc(-c3noc(C)n3)c2)cc1 -16.1%, Cc1ccc(C)c(CN2CCC(CNC(=O)C(CC(C)C)N3Cc4ccccc4C3=O)CC2)c1 (stereo not given) -30.1%, COCCn1c(CNC(=O)c2ccccc2C)nc2cccnc21 -12.5%, COc1cccc(-n2ccnc2SCC(=O)Nc2cccc3ccccc23)c1 -30.1%, COc1ccc(-n2c(CC3C(=O)Nc4ccc(C)cc43)nc3ccccc3c2=O)cc1 (stereo not given) -1.8%, O=C(NCc1ccccc1Cl)c1ccc2c(c1)ncn2-c1cccc(F)c1 -2.01%, CCc1ccc(C2c3c(-c4cc(C)ccc4O)n[nH]c3C(=O)N2CCO)cc1 (stereo not given) -20.9%, Cn1c(SCC(=O)N2CCOCC2)ncc(C(=O)Nc2ccc(F)cc2)c1=O -19.6%, Cn1c(=O)c2c(ncn2CCO)n(C)c1=O -14.6%, CCCSc1nc2sc3c(c2c(=O)n1-c1ccc(C)cc1)CCCC3 -21%, CCOC(=O)c1c(S(=O)(=O)NCC(=O)Nc2cccc(SC)c2)c(C)n(C)c1C -15.6%, COc1ccc(NC(=O)CCCS(=O)(=O)c2nc(-c3ccccc3OC)cc(C(F)(F)F)n2)c(OC)c1 -0.42%, CC1=C(c2ccc(C(C)C)cc2)S(=O)(=O)NC1=NCc1ccc(OC(C)C)cc1 -8.97%, Cc1ccc(OCCn2c(CNc3ccccc3C)nc3ccccc32)cc1 23.3%, Cn1c(C(=O)NCc2ccccc2Cl)cc2sc(Cl)cc21 -9.29%, Cc1cc(NC(=O)c2cnn(-c3ccccc3)c2-n2cccc2)ccc1Br 1.52%, COc1ccc(-c2csc3ncnc(Nc4ccc(OC)cc4OC)c23)cc1 -5.29%, COc1cccc(-c2nc3c(C#N)c[nH]n3c2NC2CCCCC2)c1 -5.79%, CCc1cccc(NC(=O)Cn2c(=O)n(CC3CCC(C(=O)NC)CC3)c(=O)c3sccc32)c1 (stereo not given) -24.9%, COc1cccc(CNC(=O)CN(c2ccc(C)cc2)S(=O)(=O)N(C)C)c1OC -11.4%, COc1cccc(CNC(=O)Cn2c(=O)cc(C)c3c(C)nn(C)c32)c1OC -11.3%, N#CC1=C(N)N(c2ccc(Cl)cc2)C2=C(C(=O)CCC2)C1c1cc(CN2CCOCC2)cs1 (stereo not given) -8.13%, O=C(NC1CCCCC1)c1ccc2c(c1)N(Cc1ccc(F)cc1)C(=O)c1ccccc1S2(=O)=O -24.4%, COc1cc(NS(=O)(=O)c2cc(Br)cc3c2N(C(C)=O)C(C)C3)cc(OC)c1 (stereo not given) -40.3%, Cc1cccc(N(C)C(=O)C2CCC(CNS(=O)(=O)c3cccc4nsnc34)CC2)c1 (stereo not given) -19.1%, CCCSC1=NC2(CCN(C(=O)NC3CCCCC3)CC2)N=C1c1ccc(OC)cc1 -21.9%, O=c1c2c3c(sc2nnn1CCCCOc1ccc(Cl)cc1)CCCC3 -2.06%, COc1cc(-c2noc(-c3cc4cccc(C)c4oc3=O)n2)cc(OC)c1OC -9.59%, CCOc1ccccc1-n1c(N)c(C(=O)OC)c2nc3ccccc3nc21 -24.7%, COc1ccc(-c2nsc(NC(=O)c3oc4ccc(Cl)cc4c3C)n2)cc1 -3.85%, O=C(Nc1ccc(F)cc1)c1nc(SCc2ccccc2F)ncc1Cl -21.8%, N#C/C(=C/c1ccc(O)cc1)c1nc(-c2ccc(-c3ccccc3)cc2)cs1 -14.5%, Cc1nc(-c2cccc(F)c2)sc1CCNC(=O)Cc1ccc(F)cc1 -29.7%, CC(C)c1ccc(-c2noc(SCC(=O)N3CCN(c4ccccc4F)CC3)n2)cc1 -7.49%, COc1ccc(Cn2ccn(CC(=O)Nc3cc(C)ccc3C)c(=O)c2=O)cc1 -13.3%, Cc1ccc(NC(=O)Cn2c(=O)ccc3cc(S(=O)(=O)N4CCCC4)ccc32)cc1C -25.5%, Cc1c(C(=O)N2CCC(C(=O)Nc3ccc(F)c(Cl)c3)CC2)sc2nc[nH]c(=O)c12 -12.4%, Cc1cc2nn(-c3ccc(F)cc3)nc2cc1NC(=O)c1ccc(C(C)(C)C)cc1 -8.3%, COc1cc(CN(C(=O)c2ccccc2)c2ccccn2)cc(OC)c1OC 25.3%, COc1ccc(-c2cn3cccnc3n2)cc1NC(=O)c1ccccc1C(F)(F)F 3.48%, COc1ccc2c(c1)c(=O)c(C(=O)c1ccc(F)cc1)cn2CC(=O)Nc1ccc2c(c1)OCCO2 -22.9%, COc1cc(C(=O)Nc2cc(C)c(O)c(-c3nc4cc(Cl)ccc4o3)c2)cc(OC)c1OC -9.7%, CCN(CC)C(=O)c1sc2c(c1C)c(=O)n(-c1ccccc1)c(=O)n2CC(=O)N(CC)c1cccc(C)c1 -5.16%, Cc1cn2c(=O)cc(COC(=O)COc3ccc(C)c(C)c3)nc2s1 -7.48%, CCCOc1ccc(C(=O)N(Cc2ccc(Cl)cc2)Cc2ccco2)cc1 -28.2%, C=C1C(=CC=C2CCC[C@]3(C)[C@@H]([C@H](C)CCCC(C)(C)O)CC[C@@H]23)C[C@@H](O)C[C@@H]1O -9.69%, Cc1ccc(CNC(=O)c2ccc3c(c2)NC(=O)C(CS(=O)(=O)Cc2cccc(C)c2)N3)cc1 (stereo not given) -17.8%, COc1cc(NC(=O)CCS(=O)(=O)c2ccc(Br)cc2)cc(OC)c1 -11.9%, CC(CCc1ccc2c(c1)OCO2)NN (stereo not given) 0.758%, CN(C(=O)CSc1nncn2c1cc1occc12)c1ccccc1 -23.6%, CCCCN(C)C(=O)CN1C(=O)c2cccnc2Oc2ccc(Cl)cc21 -12.5%, Cc1ccc(Cl)cc1NC(=O)Cn1nnc2sc3c(c2c1=O)CCC(C(C)(C)C)C3 (stereo not given) -19.9%, Cc1cccc(N(C)S(=O)(=O)c2nnc(NC(=O)C(C)(C)C)s2)c1 -35.3%, C[C@@]1(c2cc(-c3cncnc3)c(F)cc2F)CCSC(N)=N1 -29.1%, COc1ccc(CCNc2ncnc3c2cnn3-c2ccc(F)cc2)cc1 -20.2%, Brc1ccc(CN2CCc3nc(Nc4ccccc4)ncc3C2)s1 -2.22%, O=C(c1ccc2c(c1)N(Cc1ccccc1F)C(=O)c1ccccc1S2=O)N1CCC(Cc2ccccc2)CC1 (stereo not given) -41.7%, COc1ccc(OC)c(CNC(=O)c2cc3c(=O)oc4ccc(C)cc4c3s2)c1 -4.08%, COc1ccc(N(Cc2cc3cc(OC)ccc3[nH]c2=O)C(=O)c2cccc(Cl)c2)cc1 20.3%, COc1cc([C@@H]2c3cc4c(cc3[C@@H](O[C@@H]3O[C@@H]5CO[C@@H](c6cccs6)O[C@@H]5[C@H](O)[C@@H]3O)[C@H]3COC(=O)[C@H]23)OCO4)cc(OC)c1O -44%, COc1cccc(CNC(=O)Nc2cn(CC(C)C)c(=O)c3ccccc23)c1 -11.5%, COc1ccc(-c2oc3ncn4nc(-c5ccccc5OC)nc4c3c2-c2ccc(OC)cc2)cc1 -7.47%, CCOc1ccc(-n2c(-c3ccc(Br)cc3)cc3c2CC(C)(C)CC3=O)cc1 -22.5%, CCOC(=O)c1cc(-c2ccc(F)cc2)n(CCC(=O)Nc2nc3cc(C)c(C)cc3s2)c1C -9.4%, Cc1nnc2c3ccccc3nc(Nc3ccc(F)cc3Cl)n12 0.278%, Cc1nc(N2CCCC2)ncc1C(=O)Nc1ccc(OC(F)(F)F)cc1 -26.5%, COc1ccc(OCc2ccc(-c3nc(C#N)c(NCc4ccc(F)cc4)o3)o2)cc1 -23.1%, COc1cc(OC)cc(-n2c(=O)c3sccc3n(Cc3cc(=O)n4c(C)cccc4n3)c2=O)c1 -4.24%, Cc1ccc2c(CC(=O)Nc3nnc(C(C)C)s3)coc2c1C 12.3%, COc1cc(CNC(=O)c2sc3ncccc3c2-n2cccc2)cc(OC)c1OC -18.9%, COc1cccc(C2CC(=O)Nc3cc(OC)c(OC)c(OC)c32)c1OC(C)C (stereo not given) -11.2%, Cc1cccc(Cn2c(=O)n(CC3CCC(C(=O)NC(C)C)CC3)c(=O)c3sccc32)c1 (stereo not given) -11.3%, CSc1ccc(CCNC(=O)C2=C(C)C(=O)OC23CCCCC3)cc1 -12.3%, CCC1NC(=O)c2cc(S(N)(=O)=O)c(Cl)cc2N1 (stereo not given) -12.4%, Cc1nn(-c2ccccc2)c(OC(=O)c2cccc(Br)c2)c1S(=O)(=O)c1ccccc1 -21.9%, COc1ccccc1CN1CCC(CNS(=O)(=O)c2cc(-c3onc(C)c3C)ccc2OC)CC1 -15.3%, N#Cc1nc(-c2ccc(COc3ccccc3)o2)oc1NCc1cccnc1 -20.7%, COC(=O)c1ccc(OCC2c3cc(OC)c(OC)cc3CCN2C(=O)c2ccccc2C)cc1 (stereo not given) -22.8%, CC(=O)Oc1ccc(C2(c3ccc(OC(C)=O)cc3)C(=O)Nc3ccccc32)cc1 -51.8%, Cc1ccc(-c2nnc(Nc3ccc(Br)cc3)c3ccccc23)cc1S(=O)(=O)NCC1CCCO1 (stereo not given) 10.8% [at 11.5 µM, percent change from vehicle, -100% = no light], Cc1nc(N2CCCC2)c2c(C(=O)N3CCN(c4ccc(F)cc4)CC3)c(C)oc2n1 -9.14%, Cc1cccc(N2CCN(C(=O)Cn3ncc4c3-c3cc(C)ccc3OC4)CC2C)c1 (stereo not given) -34%, Cc1ncc(COP(=O)(O)O)c(C=O)c1O -5.48%, CCOc1ccc(C(=O)NCc2nnnn2-c2ccc(C)c(C)c2)cc1OCC -9.19%, Cc1cc(C)c(NC(=O)CCN2C(=O)c3ccccc3Sc3ncccc32)c(C)c1 -19.4%, Cc1ccc(-n2c(=O)c3ccc(C(=O)NCc4ccccc4Cl)cc3n(CC(=O)Nc3cccc(Cl)c3)c2=O)cc1 -6.87%, Cc1nc2cc(C(=O)NCCC3=CCCCC3)ccc2n1-c1ccc(Br)cc1 -8.39%, CCc1nn(CC(=O)NCC(C)c2ccccc2)c(=O)c2cc3occc3n12 (stereo not given) -13.2%, COC(=O)c1cc2c(cc1NC(=O)c1cnn(-c3ccccc3)c1-n1cccc1)OCO2 7.09%, CSc1nc(Nc2ccc(C)cc2C)cc(-c2ccccc2)n1 -22.1%, CCOC(=O)CNC(=O)CSc1cn(CC(=O)N2CCCCCC2)c2ccccc12 -17.4%, CN(Cc1ccccc1)C(=O)C1CCN(S(=O)(=O)c2ccc3c(c2)oc(=O)n3C)CC1 -27.3%
